Measured values as given in patent publication US7399749B2, “Substituted prolines as inhibitors of hepatitis C virus NS3 serine protease” (Schering Corporation, priority 2004, dated 2008).

Biological target: HCV NS3/NS4A protease (strain 1a) (Hepatitis C virus genotype 1a, UniProt P27958)
Test: Spectrophotometric assay for HCV protease inhibitory activity
Format: biochemical
Details: recombinant heterodimeric NS3/NS4A protease, chromogenic ester substrates, 30° C., pH 6.5
Text: Assay for HCV Protease Inhibitory Activity:
Spectrophotometric Assay: Spectrophotometric assay for the HCV serine protease can be performed on the inventive compounds by following the procedure described by R. Zhang et al, Analytical Biochemistry, 270 (1999) 268-275, the disclosure of which is incorporated herein by reference. The assay based on the proteolysis of chromogenic ester substrates is suitable for the continuous monitoring of HCV NS3 protease activity. The substrates are derived from the P side of the NS5A-NS5B junction sequence (Ac-DTEDVVX(Nva), where X=A or P) whose C-terminal carboxyl groups are esterified with one of four different chromophoric alcohols (3- or 4-nitrophenol, 7-hydroxy-4-methyl-coumarin, or 4-phenylazophenol). Illustrated below are the synthesis, characterization and application of these novel spectrophotometric ester substrates to high throughput screening and detailed kinetic evaluation of HCV NS3 protease inhibitors. Materials and Methods:
Materials: Chemical reagents for assay related buffers are obtained from Sigma Chemical Company (St. Louis, Mo.). Reagents for peptide synthesis were from Aldrich Chemicals, Novabiochem (San Diego, Calif.), Applied Biosystems (Foster City, Calif.) and Perseptive Biosystems (Framingham, Mass.). Peptides are synthesized manually or on an automated ABI model 431A synthesizer (from Applied Biosystems). UV/VIS Spectrometer model LAMBDA 12 was from Perkin Elmer (Norwalk, Conn.) and 96-well UV plates were obtained from Corning (Corning, N.Y.). The prewarming block can be from USA Scientific (Ocala, Fla.) and the 96-well plate vortexer is from Labline Instruments (Melrose Park, Ill.). A Spectramax Plus microtiter plate reader with monochrometer is obtained from Molecular Devices (Sunnyvale, Calif.).
Protein concentrations are determined by the Biorad dye method using recombinant HCV protease standards previously quantified by amino acid analysis. Prior to assay initiation, the enzyme storage buffer (50 mM sodium phosphate pH 8.0, 300 mM NaCl, 10% glycerol, 0.05% lauryl maltoside and 10 mM DTT) is exchanged for the assay buffer (25 mM MOPS pH 6.5, 300 mM NaCl, 10% glycerol, 0.05% lauryl maltoside, 5 μM EDTA and 5 μM DTT) utilizing a Biorad Bio-Spin P-6 prepacked column. Substrate Synthesis and Purification: The synthesis of the substrates is done as reported by R. Zhang et al, (ibid.) and is initiated by anchoring Fmoc-Nva-OH to 2-chlorotrityl chloride resin using a standard protocol (K. Barlos et al, Int. J. Pept. Protein Res., 37 (1991), 513-520). The peptides are subsequently assembled, using Fmoc chemistry, either manually or on an automatic ABI model 431 peptide synthesizer. […] The combined filtrate and DCM wash is evaporated azeotropically (or repeatedly extracted by aqueous Na2CO3 solution) to remove the acid used in cleavage. The DCM phase is dried over Na2SO4 and evaporated.
The ester substrates are assembled using standard acid-alcohol coupling procedures (K. Holmber et al, Acta Chem. Scand., B33 (1979) 410-412). Peptide fragments are dissolved in anhydrous pyridine (30-60 mg/ml) to which 10 molar equivalents of chromophore and a catalytic amount (0.1 eq.) of para-toluenesulfonic acid (pTSA) were added. Dicyclohexylcarbodiimide (DCC, 3 eq.) is added to initiate the coupling reactions. Product formation is monitored by HPLC and can be found to be complete following 12-72 hour reaction at room temperature. Pyridine solvent is evaporated under vacuum and further removed by azeotropic evaporation with toluene. The peptide ester is deprotected with 95% TFA in DCM for two hours and extracted three times with anhydrous ethyl ether to remove excess chromophore.

SMILES	Ki
CCCC(NC(=O)[C@@H]1C[C@@H](OC(=O)N2CCc3ccccc3C2)CN1C(=O)[C@@H](NC(=O)N[C@H](CN(C)S(=O)(=O)c1cccs1)C(C)(C)C)C(C)(C)C)C(=O)C(=O)NC1CC1 (stereo partly shown) [Example 101]	36 nM
CCCC(NC(=O)[C@@H]1C[C@@H](OC(=O)N2CCc3ccccc3C2)CN1C(=O)[C@@H](NC(=O)N[C@H](CN(C)S(C)(=O)=O)C(C)(C)C)C(C)(C)C)C(=O)C(=O)NC1CC1 (stereo partly shown) [Example 103]	13 nM
C=CCNC(=O)C(=O)C(CCCC)NC(=O)[C@@H]1C[C@@H](OC(=O)N2CCc3ccccc3C2)CN1C(=O)[C@@H](NC(=O)N[C@H](CN(C)S(C)(=O)=O)C(C)(C)C)C(C)(C)C (stereo partly shown) [Example 104]	16 nM
C=CCNC(=O)C(=O)C(CCC)NC(=O)[C@@H]1C[C@@H](OC(=O)N2CCc3ccccc3C2)CN1C(=O)[C@@H](NC(=O)N[C@H](CN(C)S(C)(=O)=O)C(C)(C)C)C(C)(C)C (stereo partly shown) [Example 105]	9 nM
CN(C[C@@H](NC(=O)N[C@H](C(=O)N1C[C@H](OC(=O)N2CCc3ccccc3C2)C[C@H]1C(=O)NC(CC1CC1)C(=O)C(N)=O)C(C)(C)C)C(C)(C)C)S(C)(=O)=O (stereo partly shown) [Example 106]	6 nM
CN(C[C@@H](NC(=O)N[C@H](C(=O)N1C[C@H](OC(=O)N2CCc3ccccc3C2)C[C@H]1C(=O)NC(CC1CCC1)C(=O)C(N)=O)C(C)(C)C)C(C)(C)C)S(C)(=O)=O (stereo partly shown) [Example 107]	5 nM
C=CCNC(=O)C(=O)C(CC1CC1)NC(=O)[C@@H]1C[C@@H](OC(=O)N2CCc3ccccc3C2)CN1C(=O)[C@@H](NC(=O)N[C@H](CN(C)S(C)(=O)=O)C(C)(C)C)C(C)(C)C (stereo partly shown) [Example 108]	7 nM
C#CCCC(NC(=O)[C@@H]1C[C@@H](OC(=O)N2CCc3ccccc3C2)CN1C(=O)[C@@H](NC(=O)N[C@H](CN(C)S(C)(=O)=O)C(C)(C)C)C(C)(C)C)C(=O)C(=O)NCC=C (stereo partly shown) [Example 109]	7 nM
C=CCNC(=O)C(=O)C(CCC(F)(F)F)NC(=O)[C@@H]1C[C@@H](OC(=O)N2CCc3ccccc3C2)CN1C(=O)[C@@H](NC(=O)N[C@H](CN(C)S(C)(=O)=O)C(C)(C)C)C(C)(C)C (stereo partly shown) [Example 111]	6 nM

Second part, the compound after the results:

Ki	SMILES
15 nM	CCCC(NC(=O)[C@@H]1C[C@@H](OC(=O)N2CCc3ccccc3C2)CN1C(=O)[C@@H](NC(=O)NC1(CS(=O)(=O)C(C)(C)C)CCCCC1)C(C)(C)C)C(=O)C(=O)NC1CC1 (stereo partly shown) [Example 102]
6 nM	C=CCNC(=O)C(=O)C(CC1CCC1)NC(=O)[C@@H]1C[C@@H](OC(=O)N2CCc3ccccc3C2)CN1C(=O)[C@@H](NC(=O)N[C@H](CN(C)S(C)(=O)=O)C(C)(C)C)C(C)(C)C (stereo partly shown) [Example 110]
5.8 nM	CC(C)(C)[C@H](NC(=O)NC1(CS(=O)(=O)C(C)(C)C)CCCCC1)C(=O)N1C[C@H](OC(=O)N2CCc3ccccc3C2)C[C@H]1C(=O)NC(CC1CCC1)C(=O)C(N)=O (stereo partly shown) [Example 112]
5.2 nM	CC(C)(C)[C@H](NC(=O)NC1(CS(=O)(=O)C(C)(C)C)CCCCC1)C(=O)N1C[C@H](OC(=O)N2CCc3ccccc3C2)C[C@H]1C(=O)NC(CC1CC1)C(=O)C(N)=O (stereo partly shown) [Example 113]
18 nM	C=CCNC(=O)C(=O)C(CCC)NC(=O)[C@@H]1C[C@@H](OC(=O)N2CCc3ccccc3C2)CN1C(=O)[C@@H](NC(=O)NC1(CS(=O)(=O)C(C)(C)C)CCCCC1)C(C)(C)C (stereo partly shown) [Example 114]
25 nM	C=CCNC(=O)C(=O)C(CCCC)NC(=O)[C@@H]1C[C@@H](OC(=O)N2CCc3ccccc3C2)CN1C(=O)[C@@H](NC(=O)NC1(CS(=O)(=O)C(C)(C)C)CCCCC1)C(C)(C)C (stereo partly shown) [Example 115]
11 nM	C=CCNC(=O)C(=O)C(CC1CC1)NC(=O)[C@@H]1C[C@@H](OC(=O)N2CCc3ccccc3C2)CN1C(=O)[C@@H](NC(=O)NC1(CS(=O)(=O)C(C)(C)C)CCCCC1)C(C)(C)C (stereo partly shown) [Example 116]
8 nM	C#CCCC(NC(=O)[C@@H]1C[C@@H](OC(=O)N2CCc3ccccc3C2)CN1C(=O)[C@@H](NC(=O)NC1(CS(=O)(=O)C(C)(C)C)CCCCC1)C(C)(C)C)C(=O)C(=O)NCC=C (stereo partly shown) [Example 117]
16 nM	C=CCNC(=O)C(=O)C(CC1CCC1)NC(=O)[C@@H]1C[C@@H](OC(=O)N2CCc3ccccc3C2)CN1C(=O)[C@@H](NC(=O)NC1(CS(=O)(=O)C(C)(C)C)CCCCC1)C(C)(C)C (stereo partly shown) [Example 118]
12 nM	C=CCNC(=O)C(=O)C(CCC(F)(F)F)NC(=O)[C@@H]1C[C@@H](OC(=O)N2CCc3ccccc3C2)CN1C(=O)[C@@H](NC(=O)NC1(CS(=O)(=O)C(C)(C)C)CCCCC1)C(C)(C)C (stereo partly shown) [Example 119]
